Measurements from PubChem BioAssay AID488969 (Vanderbilt High Throughput Screening Facility, 2010).
Over roughly 110,000 compounds, “z-score” has its median near -0.1; the highest 2% begin near 2. The list shows a part of the results.

Molecular target: Metabotropic glutamate receptor 8 (Rattus norvegicus) (UniProt P70579)
Experiment: rat mGluR8 modulators via GIRK flux, primary screen, cell-based, thallium flux, HTS (AID 488969)
Conditions: HEK293 rat mGluR8, GIRK (G protein-gated inwardly rectifying potassium channel) thallium flux, FluoZin2; at 10 µM; stronger effect = higher value; submaximal glutamate (EC20) added with thallium

Chain of UniProt P70579 (P70579 whole entry, looked up): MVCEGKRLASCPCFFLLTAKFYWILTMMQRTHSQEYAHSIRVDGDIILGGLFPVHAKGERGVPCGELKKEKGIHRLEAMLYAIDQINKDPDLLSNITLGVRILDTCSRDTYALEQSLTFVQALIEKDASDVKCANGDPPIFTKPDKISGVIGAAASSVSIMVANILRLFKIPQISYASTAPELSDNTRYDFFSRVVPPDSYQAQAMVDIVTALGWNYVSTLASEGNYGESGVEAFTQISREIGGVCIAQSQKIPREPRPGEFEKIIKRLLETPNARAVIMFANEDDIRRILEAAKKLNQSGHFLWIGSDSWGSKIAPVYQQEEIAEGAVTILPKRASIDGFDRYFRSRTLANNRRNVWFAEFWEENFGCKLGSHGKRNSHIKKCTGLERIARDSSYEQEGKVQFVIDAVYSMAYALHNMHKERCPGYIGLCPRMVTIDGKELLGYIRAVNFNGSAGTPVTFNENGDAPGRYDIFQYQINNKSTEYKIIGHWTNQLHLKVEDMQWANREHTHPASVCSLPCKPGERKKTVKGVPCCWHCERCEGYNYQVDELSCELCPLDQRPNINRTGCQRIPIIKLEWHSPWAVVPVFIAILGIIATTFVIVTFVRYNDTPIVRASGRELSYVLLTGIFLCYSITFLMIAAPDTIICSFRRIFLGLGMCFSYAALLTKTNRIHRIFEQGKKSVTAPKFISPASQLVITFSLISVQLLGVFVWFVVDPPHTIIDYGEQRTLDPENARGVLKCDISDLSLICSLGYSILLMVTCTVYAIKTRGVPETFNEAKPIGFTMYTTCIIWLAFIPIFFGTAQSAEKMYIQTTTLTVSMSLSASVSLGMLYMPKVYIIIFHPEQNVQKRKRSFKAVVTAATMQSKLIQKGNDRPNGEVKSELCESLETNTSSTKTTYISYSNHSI

Structure (SMILES)	z-score
Cc1ccc(NC(=O)CCC(=O)NNC(=O)/C=C/C(=O)O)c(C)c1	-0.0638
COc1cc(C(=O)NC(=S)Nc2ccc(NC(=O)c3ccco3)cc2)cc(OC)c1OC	-0.379
Cc1ccc(NC2c3ncccc3C(=O)N2C2CCCCC2)cc1 (stereo unspecified)	-0.988
Cc1ccc2c(C)nc(Nc3ncc4c(n3)CCCC4=O)nc2c1	-0.118
Cc1cc(C)c(C#N)c(SCc2ccccc2C(=O)O)n1	0.198
COc1ccc(OC)c(NS(=O)(=O)c2ccc(NC(C)=O)cc2)c1	-0.311
CCCOc1ccc2oc(=O)c3c(c2c1)CCCN3C(=O)CN1CCc2ccccc2C1	0.268
O=C(/C=C\NCC(=O)c1ccccc1)c1ccccc1	-0.0328
CC[N+]1(CC)CC2=Cc3c(ccc4ccccc34)CC2C1 (stereo unspecified)	-0.386
COc1ccc(CNC(=O)CSc2nnc3c(Cl)cc(C(F)(F)F)cn23)cc1OC	-0.498
C/C(=N/OCC(=O)Nc1ccccc1)c1cccs1	-0.0392
CCOC(=O)CN(C#N)c1nc(C)cc(C)n1	0.22
CCOCCCNC(=O)C(Cc1ccccc1)NC(=O)c1ccco1 (stereo unspecified)	-0.543
CC1CCCC(C)N1/N=C/c1ccc(Cl)cc1 (stereo unspecified)	-0.0895
C=CCN1C(=O)C(Cc2ccccc2)S/C1=N/N=C/c1cccs1 (stereo unspecified)	-0.302
CCC1CCCCN1CCNC(=O)CNS(=O)(=O)c1ccc2nc(C)sc2c1 (stereo unspecified)	-0.511
CC1CN(c2ccc([N+](=O)[O-])cc2C(=O)N2CCOCC2)CC(C)N1 (stereo unspecified)	-0.364
Cc1cccc(C)c1Nc1nnc(SCC(=O)c2ccc3c(c2)NC(=O)CO3)s1	-0.162
Cc1cc(NC(=O)c2ccc(S(=O)(=O)N3CCCC3)cc2)nc2c1c(=O)oc1ccccc12	0.442
Cn1cc(CC(=O)NCCCN2CCCC2)c2ccccc21	0.206
NC(=O)NC(c1ccccc1)c1cccc2ccccc12 (stereo unspecified)	-0.241
CCCCOCCCNC(=O)N[C@@H](CC(C)C)C(=O)O	0.0102
CC(C)CSc1ncnc2c1oc1nc3c(cc12)COC(C)(C)C3	0.0119

Structure (SMILES)	z-score
CC(=O)c1cccc(NC(=O)Nc2ccc3c(c2)N(C)C(=O)CS3)c1	-0.749
CCN(C(=O)COC(=O)c1cc(-c2ccccc2)nc2c1c(C)nn2-c1ccc(C)cc1)C1CCS(=O)(=O)C1 (stereo unspecified)	0.887
Cc1ccc(-c2nc(CCN3C(=O)c4ccccc4C3=O)cs2)cc1	-0.242
CCCC(=O)Nc1nnc(Sc2ccc(N(C)C)cc2)s1	0.952
COc1ccc(C2C(C(=O)O)CC(=O)N2c2ccc(OC)cc2)cc1 (stereo unspecified)	-0.728
COc1ccc(C2C(=O)N(CCc3ccccc3)CC(=O)N2C2CCCCC2)cc1 (stereo unspecified)	-0.422
CSc1ccccc1NC(=O)C1CC(c2ccccc2O)=NO1 (stereo unspecified)	-0.288
Cn1c(=O)c2c(nc(SCCCC#N)n2Cc2ccccc2F)n(C)c1=O	-0.419
CC(=O)Cc1nsc(NC(=O)c2c(-c3ccccc3Cl)noc2C)n1	0.444
O=C1CCCc2c1[nH]c1ccc(Cl)cc21	-0.298
Cc1nnc(Nc2ccc3c(c2)ncn3C)c2ccccc12	-0.24
Cc1ccn2c(C(=O)N/N=C\c3cccs3)c(C)nc2c1	-0.0139
O=C(c1ccncc1)c1ccc(Br)cc1	-0.0674
Cc1ccc(S(=O)(=O)N(CC(=O)N2CCN(c3ccc(F)cc3)CC2)C2CCCCC2)cc1	0.14
O=C(NCc1cccs1)c1nc2c(nnn2Cc2ccc(F)cc2)c(=O)[nH]1	-1
CC(C)N1C(=O)CC2(CC[N+](C)(CCOC(=O)C(c3ccccc3)c3ccccc3)CC2)C1=O (stereo unspecified)	0.1
CCOC(=O)c1sc(NC(=O)c2ccc(S(=O)(=O)N3CCOCC3)cc2)nc1-c1ccccc1	-0.49
COc1cc(OC)c(C(=O)OC(C)C(=O)Nc2cc(C(F)(F)F)ccc2Cl)cc1OC (stereo unspecified)	-0.296
O=C(O)CCC(=O)NNC(=O)c1ccc(Br)cc1	-0.149
COc1cc(OC)cc(OCC(O)Cn2ccnc2C)c1 (stereo unspecified)	0.18
CN(C)c1nc(OCCNC(=O)COc2ccccc2Cl)nc(N(C)C)n1	-0.751
COc1ccc(CN(C)C(C)C(=O)Nc2ccc([N+](=O)[O-])cc2Cl)cc1OC (stereo unspecified)	-0.15
O=C(O)CN1C(=O)CNC1=O	0.44

Structure (SMILES)	z-score
C/C(=N\NC(=O)c1ccn[nH]1)c1cn(C)nc1C	-0.0601
Cc1ccc(C(=O)c2cnc3cc4c(cc3c2S(=O)(=O)c2ccccc2)OCCO4)cc1	-0.361
O=C(Nc1ccccc1)c1ccc(S(=O)(=O)N2CCOCC2)cc1	0.477
COc1ccc(OC)c(C2CC(c3c(-c4ccccc4)c4cc(Cl)ccc4[nH]c3=O)=NN2S(C)(=O)=O)c1 (stereo unspecified)	0.273
COc1ccc(CCNC(=O)CSc2nc(O)c(CCC(C)C)c(=O)[nH]2)cc1OC	-0.227
O=C1CCC(C(=O)NCCCn2ccnc2)N1 (stereo unspecified)	-0.292
Cc1cc(N2CCCC2=O)cc(C)c1S(N)(=O)=O	-0.00592
COC(=O)C(/C=N/OCc1ccc([N+](=O)[O-])cc1)NC(=O)c1cccc(Cl)c1 (stereo unspecified)	0.162
CN1CCN(c2ccc([N+](=O)[O-])c(-n3nc(-c4ccccc4)c4ccccc4c3=O)c2)CC1	-0.953
Cn1nc(C(F)(F)F)c(/C=N/OC(=O)c2ccccc2Cl)c1SCc1ccccc1Cl	-0.323
COc1cc(C2SCC(=O)N2CCCN(C)C)cc(OC)c1OC (stereo unspecified)	-0.0223
CCCn1c(SCC(=O)NC2CCCC(C)C2C)n[nH]c1=O (stereo unspecified)	0.27
O=C(Nc1ccc(Cl)cc1)Nc1nnc(CSCc2ccccc2)s1	-0.183
Cc1cc(C(F)(F)F)c2c(n1)sc1c(O)cc(=O)[nH]c12	-1.1
CCCCNC(=O)c1onc(CSc2cccc(C)c2)c1C(=O)O	-0.302
Cn1ncc(Br)c1C(=O)NCc1cccs1	-0.458
COc1ccc(C(=O)Cn2c3ccccc3n3nc(CCC(=O)O)c(=O)nc23)cc1OC	0.713
CCC1=NC(c2ccc(OC)cc2)N(O)C1(C)C (stereo unspecified)	-0.045
CC(=O)c1cccc(Nc2nc(=O)c3cccnc3s2)c1	0.223
COC(=O)c1ccc(Cl)c(-c2ccc(/C=N/NC(=O)Nc3ccccc3)o2)c1	0.0576
CCOc1ccc(-c2nnc(N3CCCCC3)c3ccccc23)cc1	-1.46
Cc1cccc(C(OC(=O)c2ccco2)C(=O)NCc2ccccc2)n1 (stereo unspecified)	-0.419
Cc1ccccc1NC(c1cccc(Cl)c1)c1nnnn1C1CCCCC1 (stereo unspecified)	-0.0701

Structure (SMILES)	z-score
CCOC(=O)c1ccc(NC(=O)CSc2nnc(C3CC3)n2CC)cc1	-0.184
CC(NC(=O)c1ccc(CS(=O)(=O)c2ccc(Cl)cc2)o1)c1ccc2c(c1)OCCO2 (stereo unspecified)	-0.695
N=C1S/C(=C\c2ccc(-c3cccc(Cl)c3)o2)C(=O)N1c1nccs1	0.814
O=C(O)C1CC=CCC1C(=O)NCCc1cccc(Cl)c1 (stereo unspecified)	-0.133
CCOc1ccccc1C(=O)Nc1ccccc1C(N)=O	-0.0706
Cc1ccc(C)c(NC(=S)NNC(=O)c2ccco2)c1	-0.0706
Cc1cc(C)nc(SCC(=O)OCN2C(=O)c3ccccc3C2=O)n1	-0.19
COc1cccc(NC(=O)c2cccs2)c1	0.181
NC(=O)C(F)(F)C12OC3C4C5CC(C6C5C3C61)C42 (stereo unspecified)	-0.285
CCOC(=O)Nc1cccc(OCC(=O)Nc2ccc(OC)cc2OC)c1	-0.383
Cc1n[nH]c(C)c1-c1nc2ccccc2[nH]1	-1.02
CC(C)NC(=O)COC(=O)c1ccc(Oc2ccccc2)cc1	-0.196
O=C(COC(=O)Cc1ccc(Cl)cc1Cl)NCCC1=CCCCC1	-1.17
COc1ccc(/C=N/NC(=O)COc2ccccc2-c2ccccc2)cc1	0.0734
Cc1nc2ccccc2cc1O	-0.609
CCOC(=O)C(/C=C(\C#N)C(=O)OCC)=C(/N)N1CCN(c2ccc(Cl)cc2)CC1	-0.506
CCC(=O)n1nc(-c2ccco2)nc1N	0.135
O=C(CN1CCCC1)N1c2ccccc2Sc2ccc(C(F)(F)F)cc21	0.663
O=Cc1ccc(Sc2nnc(-c3ccccc3)o2)c([N+](=O)[O-])c1	-0.48
Cn1c(=O)n(C)c2cc(S(=O)(=O)N3CCOCC3)ccc21	-0.185
O=C(NC1CC1)c1cc(-c2ccccn2)nc2ccccc12	-0.16
CCC(Sc1nc2ccccc2c(=O)n1CC1CCCO1)C(=O)NCc1cccnc1 (stereo unspecified)	0.0564
COc1c(N2CCN(C(=S)Nc3ccc(F)cc3)C(C)C2)c(F)cc2c(=O)c(C(=O)O)cn(C3CC3)c12 (stereo unspecified)	-0.443

Structure (SMILES)	z-score
Cc1cc(N2CCC(C(=O)N3CCN(c4cccc(C)c4C)CC3)CC2)n2ncnc2n1	-0.316
COc1ccccc1C1NC(c2ccccc2OC)C(C)C(=O)C1C (stereo unspecified)	-0.156
FC(F)Oc1ccc(NC(=S)NCc2ccccc2)cc1	1.51
COc1cc(NC(=O)CN2C(=O)C(c3ccccc3)=NC23CCCCCC3)cc(OC)c1	0.52
COc1ccc(-c2nc3scc(-c4ccc(OC)c(OC)c4)c3c(=O)o2)cc1	-0.103
CCOc1cc(N2CCOCC2)c(OCC)cc1NC(=O)Cc1cccc(OC)c1	0.174
Cc1cc(Cl)ccc1OCCCC(=O)N1CCCCC1	-0.56
COc1ccc2c(-c3cccnc3)cc(=O)[nH]c2c1	-0.00403
COc1cccc(-n2c(SC)nnc2-c2c[nH]c3ccccc23)c1	-0.763
Cc1nn(Cc2c(Cl)cccc2Cl)c(Cl)c1/C=C/C(=O)OCC(=O)NCC(F)(F)F	0.111
Cc1cccc(N2C(=O)CC(N3CCN(Cc4ccc(Cl)cc4)CC3)C2=O)c1 (stereo unspecified)	-0.358
COc1ccc(CCNS(=O)(=O)c2ccccc2)cc1OC	-0.0361
C=C(C)Cn1c(SCC(=O)O)nnc1-c1ccc(C(C)(C)C)cc1	-0.161
CCOC(=O)c1c(C)[nH]c(C(=O)CSc2nccc(C)n2)c1C	0.221
CCOC(=O)Nc1ccc(C)cc1Br	0.567
Cc1cc(S(=O)(=O)NCC(=O)O)ccc1F	0.254
CCN(CC)S(=O)(=O)c1ccc(N2CCCC2)c(C(=O)Nc2ccc(OC)c(Cl)c2)c1	-0.0234
O=C(Nc1cccc(Cl)c1)OCc1cncs1	-0.255
COc1cccc(/C=N/NC(=O)C(=O)Nc2ccccc2OC(F)(F)C(F)F)c1	-0.0878
